The whole screen tested about 390,000 compounds, of which about 1,400 (0.36%) were called active. Inconclusive means that the source gave no clear call. Such entries were picked first, then a sample of the others. The call rests on the fitted dose curve; in most records, active means well fitted inhibition curve with a large enough effect; inconclusive means small, poorly fitted or top-dose-only effect; inactive means no such curve, though single readings can be large or run the other way. A potency beside an inconclusive call is a rough fit, not a confirmed value.
What follows are compounds tested against Flap endonuclease 1 (Homo sapiens) (UniProt P39748) (assay: qHTS Assay for the Inhibitors of Human Flap endonuclease 1 (FEN1).). Conditions: Recombinant FEN1 flap cleavage, fluorescence, 15 min; series mostly up to 114 µM; activity change, negative = inhibition: at the top concentration.
Procedure, shortened: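 FEN1 at 10 nM preincubated with compounds 15 min at room temperature, then flap DNA substrate added at 50 nM final. Signal read at 0 and 15 min; concentration-response fitted with four-parameter Hill equation.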
Further: nearly all actives have a fitted effect of over 65% in size.
On the % scale 0 is the no-effect control and ±100 the full control effect; potency means the concentration at half of the fitted maximal effect; tags describe the fitted curve by direction and shape.

Sequence of UniProt P39748 (P39748 whole entry, looked up): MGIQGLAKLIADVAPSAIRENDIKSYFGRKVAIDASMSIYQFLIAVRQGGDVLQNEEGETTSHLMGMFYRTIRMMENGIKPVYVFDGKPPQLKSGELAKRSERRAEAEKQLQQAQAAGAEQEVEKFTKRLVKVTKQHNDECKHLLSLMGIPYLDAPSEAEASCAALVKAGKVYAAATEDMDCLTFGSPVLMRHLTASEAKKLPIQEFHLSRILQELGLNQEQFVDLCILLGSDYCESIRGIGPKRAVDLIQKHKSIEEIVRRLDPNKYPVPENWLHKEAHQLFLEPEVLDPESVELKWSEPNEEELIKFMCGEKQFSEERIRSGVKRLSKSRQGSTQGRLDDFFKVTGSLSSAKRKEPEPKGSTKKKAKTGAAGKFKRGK

Compound | Potency | activity change, negative = inhibition
CCc1cccc2c(C(=O)COC(=O)c3ccc([N+](=O)[O-])s3)c[nH]c12 | inconclusive: 25.1 µM [inhibitor, full curve, poor fit] | –
O=C(O)CNC(=O)c1ccc(Oc2c(F)c(F)c(Oc3ccc(C(=O)NCC(=O)O)cc3)c(F)c2F)cc1 | inconclusive: 89.1 µM [inhibitor, single point] | –
COc1ccc(N2CCN(C(=O)CN3CCN(C(c4ccccc4)c4ccccc4)CC3)CC2)cc1 | inconclusive: 89.1 µM [inhibitor, partial curve, poor fit] | –
CCn1c(=O)c2cc(C(=O)NCc3ccc(F)cc3Cl)sc2c2ccccc21 | inconclusive: 4.47 µM [inhibitor, partial curve, poor fit] | –
Nc1nnc(CC(=O)N/N=C/c2ccc(-c3cccc(C(=O)O)c3)o2)s1 | inconclusive: 50.1 µM [inhibitor, partial curve, poor fit] | –
Cc1ccc(S(=O)(=O)N2CCC(C(=O)Nc3ccc(C(C)C)cc3)CC2)cc1 | inconclusive: 11.2 µM [inhibitor, partial curve, poor fit] | –
CN(C)CCCN(C(=O)c1ccc([N+](=O)[O-])o1)c1nc2cc3c(cc2s1)OCO3 | inconclusive: 35.5 µM [inhibitor, single point] | –
Cc1cccc(C)c1NC(=O)Cn1cc(C(=O)c2ccco2)c2ccccc21 | – | inactive: -14.3%
S=C(Nc1cccc(Cl)c1)Nc1cccc2cnccc12 | inconclusive: 89.1 µM [inhibitor, partial curve, poor fit] | –
O=C(/C=C/c1ccccc1)/C=C/c1ccccc1 | inconclusive: 89.1 µM [inhibitor, partial curve, poor fit] | –
O=C1c2ccc3c4c(ccc(c24)C(=O)N1NC(=O)C(F)(F)F)CC3 | active: 56.2 µM | –
CCc1cccc(C)c1NC(=O)CCCn1c(C)c2cnn(-c3ccccc3)c(=O)c2c1C | – | inactive: -8.28%
CCn1c2ccccc2c2cc(CN3CCN(Cc4ccc(Cl)cc4)CC3)ccc21 | inconclusive: 79.4 µM [inhibitor, partial curve] | –
COc1ccc(Nc2nc(-c3cccc(OC)c3O)nc3ccccc23)cc1 | inconclusive: 44.7 µM [inhibitor, partial curve] | –
Cc1[nH]c2ccccc2c1C(=O)CN1C(=O)NC2(CC(C)CC(C)(C)C2)C1=O (stereo not given) | inconclusive: 28.2 µM [inhibitor, partial curve, poor fit] | –
CC(C)CCCCCCNC(=S)Nc1ccc(S(=O)(=O)N2CCOCC2)cc1 | inconclusive: 31.6 µM [inhibitor, partial curve, poor fit] | –
O=C(O)CC(NC(=O)CCc1ccccc1)c1ccc(Cl)cc1 (stereo not given) | – | inactive: 0.683%
COc1cc(/C=C/c2nc3ccccc3s2)cc(OC)c1O | inconclusive: 50.1 µM [inhibitor, partial curve, poor fit] | –
N#Cc1ccsc1NC(=O)COC(=O)C1=NNC(=O)CC1 | inconclusive: 89.1 µM [inhibitor, single point] | –
Cc1ccc(C)c2c3c([nH]c12)-c1nonc1CC3 | inconclusive: 44.7 µM [inhibitor, partial curve, poor fit] | –

Compound | Potency | activity change, negative = inhibition
COc1ccccc1NC(=O)c1cccc(S(=O)(=O)N2CCOCC2)c1 | – | inactive: 37.7%
CCC(CO)Oc1cc(NCc2ccccc2OC)c2ncn(C(C)C)c2c1 (stereo not given) | inconclusive: 12.6 µM [inhibitor, partial curve, poor fit] | –
CCOC(=O)Nc1cc2c(c(N)n1)N=C(c1ccccc1)CN2 | inconclusive: 25.1 µM [inhibitor, full curve] | –
Cc1ccc(CN(N=Nc2nonc2N)c2nonc2N)c(C)c1 | inconclusive: 44.7 µM [inhibitor, partial curve, poor fit] | –
Cc1cccn2c(=O)c3cc(C(N)=S)c(=N)n(CCCN4CCOCC4)c3nc12 | inconclusive: 79.4 µM [inhibitor, single point] | –
COc1ccc([C@H]2C(C#N)=C([S-])N[C@](C)(O)[C@@H]2[n+]2ccccc2)cc1 | inconclusive: 79.4 µM [inhibitor, single point] | –
Cc1cccc2c1NC(=O)C2=O | inconclusive: 79.4 µM [inhibitor, partial curve] | –
CN(Cc1ccccc1)Cc1c(O)ccc2c(=O)c(-c3ccccc3)c(C(F)(F)F)oc12 | inconclusive: 100 µM [inhibitor, single point] | –
CC(=O)Nc1ccc2c(c1)Cc1ccc(Cl)cc1-2 | inconclusive: 100 µM [inhibitor, single point] | –
COc1ccc(-c2cc(C#N)nc(Oc3ccc(Cl)cc3)n2)cc1 | inconclusive: 100 µM [inhibitor, partial curve, poor fit] | –
Cc1ccc(OCC(=O)c2c(N)n(C)c(=O)n(C)c2=O)c([N+](=O)[O-])n1 | inconclusive: 56.2 µM [inhibitor, partial curve, poor fit] | –
COc1ccc(C2=NC3(CCCCCC3)N(CC(=O)Nc3ccc(C)c(C)c3)C2=O)cc1 | – | inactive: 4.12%
O=C(COC(=O)c1ccc([N+](=O)[O-])o1)NCc1ccc2c(c1)OCO2 | active: 17.8 µM | –
COc1ccc(N2CCN(C(=O)c3ccc(C(C)(C)C)cc3)CC2)cc1 | – | inactive: 3.39%
CC(C)(C)[C@H]1COC(=O)[C@H](NC(=O)OCC2c3ccccc3-c3ccccc32)C/C=C\C[C@@H](CC(=O)N[C@@H](CO)Cc2ccccc2)C(=O)N1 | – | inactive: -7.88%
O=C(O)COc1ccccc1/C=C1\SC(=S)N(/N=C/c2ccccc2O)C1=O | – | inactive: -2.33%
N#CCC(=O)N/N=C/c1cn(Cc2ccc3ccccc3c2)c2ccccc12 | – | inactive: 3.82%
CCc1ccc(N2CCn3c2nc2c3c(=O)n(C/C=C/c3ccccc3)c(=O)n2C)cc1 | – | inactive: 1.66%
O=C(NCCN1CCOCC1)c1cc(Sc2ccc(F)cc2F)nc2ccccc12 | inconclusive: 89.1 µM [inhibitor, single point] | –
Cc1cc(=O)n2[nH]c(-c3ccsc3-n3c(C)ccc3C)cc2n1 | inconclusive: 56.2 µM [inhibitor, partial curve, poor fit] | –

Source: PubChem BioAssay AID588795 (National Center for Advancing Translational Sciences (NCATS), 2011)
